From US4413005A, “Carbamate derivatives and insecticidal, miticidal or nematocidal compositions containing the same” (priority 1981, dated 1983)
At least one read-out could not be matched to a standard name with certainty.

Test system: southern root-knot nematode (Meloidogyne incognita)
Experiment: Formation of nodules on tomato roots in soil contaminated with southern root-knot nematode larvae (Test Example 3)
Format: in vivo
Conditions: one month later
[1] = granules (10% of compound) applied 20 kg/10 a
[2] = granules (10% of compound) applied 50 kg/10 a
[3] = granules (10% of compound) applied 100 kg/10 a

## CN(CCC#N)SN(C)C(=O)Oc1cccc2c1OC(C)(C)C2 [Example 37]
[1]
  Degree of Formation of Nodules: 2 (Up to 50%)
[2]
  Degree of Formation of Nodules: 1 (Up to 25%)
[3]
  Degree of Formation of Nodules: 0 (0%)

## CC(C)N(CCC#N)SN(C)C(=O)Oc1cccc2c1OC(C)(C)C2 [Example 38]
[1]
  Degree of Formation of Nodules: 1 (Up to 25%)
[2]
  Degree of Formation of Nodules: 0 (0%)
[3]
  Degree of Formation of Nodules: 0 (0%)

## CCCCN(CCC#N)SN(C)C(=O)Oc1cccc2c1OC(C)(C)C2 [Example 39, 2,3-Dihydro-2,2-dimethylbenzofuran-7-yl N-(N-n-butyl-N-cyanoethylaminosulfenyl)-N-methyl-carbamate]
[1]
  Degree of Formation of Nodules: 1 (Up to 25%)
[2]
  Degree of Formation of Nodules: 0 (0%)
[3]
  Degree of Formation of Nodules: 0 (0%)

## CC(C)CN(CCC#N)SN(C)C(=O)Oc1cccc2c1OC(C)(C)C2 [Example 40]
[1]
  Degree of Formation of Nodules: 1 (Up to 25%)
[2]
  Degree of Formation of Nodules: 1 (Up to 25%)
[3]
  Degree of Formation of Nodules: 0 (0%)

## CCCCCCCCN(CCC#N)SN(C)C(=O)Oc1cccc2c1OC(C)(C)C2 [Example 41]
[1]
  Degree of Formation of Nodules: 3 (Up to 75%)
[2]
  Degree of Formation of Nodules: 1 (Up to 25%)
[3]
  Degree of Formation of Nodules: 0 (0%)

## CN(SN(CCC#N)C1CCCCC1)C(=O)Oc1cccc2c1OC(C)(C)C2 [Example 42]
[1]
  Degree of Formation of Nodules: 2 (Up to 50%)
[2]
  Degree of Formation of Nodules: 1 (Up to 25%)
[3]
  Degree of Formation of Nodules: 0 (0%)

## CCOC(=O)CN(SN(C)C(=O)Oc1cccc2c1OC(C)(C)C2)C(=O)CC [Example 43, 2,3-dihydro-2,2-dimethylbenzofuran-7-yl N-(N-propionyl-N-ethoxycarbonylmethylaminosulfenyl)-N-methyl-carbamate]
[1]
  Degree of Formation of Nodules: 2 (Up to 50%)
[2]
  Degree of Formation of Nodules: 1 (Up to 25%)
[3]
  Degree of Formation of Nodules: 0 (0%)

## CCOC(=O)CN(SN(C)C(=O)Oc1cccc2c1OC(C)(C)C2)C(=O)OCC [Example 44, 2,3-dihydro-2,2-dimethylbenzofuran-7-yl N-(N-ethoxycarbonyl-N-ethoxycarbonylmethylaminosulfenyl)-N-methyl-carbamat]
[1]
  Degree of Formation of Nodules: 1 (Up to 25%)
[2]
  Degree of Formation of Nodules: 0 (0%)
[3]
  Degree of Formation of Nodules: 0 (0%)

## CCOC(=O)CN(SN(C)C(=O)Oc1cccc2c1OC(C)(C)C2)C(=O)CCl [Example 45]
[1]
  Degree of Formation of Nodules: 2 (Up to 50%)
[2]
  Degree of Formation of Nodules: 1 (Up to 25%)
[3]
  Degree of Formation of Nodules: 0 (0%)

## CCOC(=O)CN(SN(C)C(=O)Oc1cccc2c1OC(C)(C)C2)C(=O)c1ccccc1 [Example 46]
[1]
  Degree of Formation of Nodules: 2 (Up to 50%)
[2]
  Degree of Formation of Nodules: 1 (Up to 25%)
[3]
  Degree of Formation of Nodules: 0 (0%)

## CCOC(=O)CN(SN(C)C(=O)Oc1cccc2c1OC(C)(C)C2)C(=O)c1ccc(Cl)cc1 [Example 47]
[1]
  Degree of Formation of Nodules: 3 (Up to 75%)
[2]
  Degree of Formation of Nodules: 1 (Up to 25%)
[3]
  Degree of Formation of Nodules: 0 (0%)

## CCOC(=O)CN(SN(C)C(=O)Oc1cccc2c1OC(C)(C)C2)S(=O)(=O)c1ccc(C)cc1 [Example 48]
[1]
  Degree of Formation of Nodules: 3 (Up to 75%)
[2]
  Degree of Formation of Nodules: 1 (Up to 25%)
[3]
  Degree of Formation of Nodules: 0 (0%)

## CCOC(=O)CN(SN(C)C(=O)Oc1cccc2c1OC(C)(C)C2)C(=O)OC [Example 49]
[1]
  Degree of Formation of Nodules: 1 (Up to 25%)
[2]
  Degree of Formation of Nodules: 0 (0%)
[3]
  Degree of Formation of Nodules: 0 (0%)

## CCOC(=O)CN(SN(C)C(=O)Oc1cccc2c1OC(C)(C)C2)C(=O)Oc1ccccc1 [Example 50]
[1]
  Degree of Formation of Nodules: 3 (Up to 75%)
[2]
  Degree of Formation of Nodules: 1 (Up to 25%)
[3]
  Degree of Formation of Nodules: 0 (0%)

## CCOC(=O)N(CCC#N)SN(C)C(=O)Oc1cccc2c1OC(C)(C)C2 [Example 51]
[1]
  Degree of Formation of Nodules: 2 (Up to 50%)
[2]
  Degree of Formation of Nodules: 1 (Up to 25%)
[3]
  Degree of Formation of Nodules: 0 (0%)

## CCOC(=O)CCN(SN(C)C(=O)Oc1cccc2c1OC(C)(C)C2)C(=O)OCC [Example 52]
[1]
  Degree of Formation of Nodules: 2 (Up to 50%)
[2]
  Degree of Formation of Nodules: 1 (Up to 25%)
[3]
  Degree of Formation of Nodules: 0 (0%)
